Drawing on PMC3738564, this text covers binding for four substances.

Chains of the proteins cited; added tags and fusions are not shown.
UniProt P11531: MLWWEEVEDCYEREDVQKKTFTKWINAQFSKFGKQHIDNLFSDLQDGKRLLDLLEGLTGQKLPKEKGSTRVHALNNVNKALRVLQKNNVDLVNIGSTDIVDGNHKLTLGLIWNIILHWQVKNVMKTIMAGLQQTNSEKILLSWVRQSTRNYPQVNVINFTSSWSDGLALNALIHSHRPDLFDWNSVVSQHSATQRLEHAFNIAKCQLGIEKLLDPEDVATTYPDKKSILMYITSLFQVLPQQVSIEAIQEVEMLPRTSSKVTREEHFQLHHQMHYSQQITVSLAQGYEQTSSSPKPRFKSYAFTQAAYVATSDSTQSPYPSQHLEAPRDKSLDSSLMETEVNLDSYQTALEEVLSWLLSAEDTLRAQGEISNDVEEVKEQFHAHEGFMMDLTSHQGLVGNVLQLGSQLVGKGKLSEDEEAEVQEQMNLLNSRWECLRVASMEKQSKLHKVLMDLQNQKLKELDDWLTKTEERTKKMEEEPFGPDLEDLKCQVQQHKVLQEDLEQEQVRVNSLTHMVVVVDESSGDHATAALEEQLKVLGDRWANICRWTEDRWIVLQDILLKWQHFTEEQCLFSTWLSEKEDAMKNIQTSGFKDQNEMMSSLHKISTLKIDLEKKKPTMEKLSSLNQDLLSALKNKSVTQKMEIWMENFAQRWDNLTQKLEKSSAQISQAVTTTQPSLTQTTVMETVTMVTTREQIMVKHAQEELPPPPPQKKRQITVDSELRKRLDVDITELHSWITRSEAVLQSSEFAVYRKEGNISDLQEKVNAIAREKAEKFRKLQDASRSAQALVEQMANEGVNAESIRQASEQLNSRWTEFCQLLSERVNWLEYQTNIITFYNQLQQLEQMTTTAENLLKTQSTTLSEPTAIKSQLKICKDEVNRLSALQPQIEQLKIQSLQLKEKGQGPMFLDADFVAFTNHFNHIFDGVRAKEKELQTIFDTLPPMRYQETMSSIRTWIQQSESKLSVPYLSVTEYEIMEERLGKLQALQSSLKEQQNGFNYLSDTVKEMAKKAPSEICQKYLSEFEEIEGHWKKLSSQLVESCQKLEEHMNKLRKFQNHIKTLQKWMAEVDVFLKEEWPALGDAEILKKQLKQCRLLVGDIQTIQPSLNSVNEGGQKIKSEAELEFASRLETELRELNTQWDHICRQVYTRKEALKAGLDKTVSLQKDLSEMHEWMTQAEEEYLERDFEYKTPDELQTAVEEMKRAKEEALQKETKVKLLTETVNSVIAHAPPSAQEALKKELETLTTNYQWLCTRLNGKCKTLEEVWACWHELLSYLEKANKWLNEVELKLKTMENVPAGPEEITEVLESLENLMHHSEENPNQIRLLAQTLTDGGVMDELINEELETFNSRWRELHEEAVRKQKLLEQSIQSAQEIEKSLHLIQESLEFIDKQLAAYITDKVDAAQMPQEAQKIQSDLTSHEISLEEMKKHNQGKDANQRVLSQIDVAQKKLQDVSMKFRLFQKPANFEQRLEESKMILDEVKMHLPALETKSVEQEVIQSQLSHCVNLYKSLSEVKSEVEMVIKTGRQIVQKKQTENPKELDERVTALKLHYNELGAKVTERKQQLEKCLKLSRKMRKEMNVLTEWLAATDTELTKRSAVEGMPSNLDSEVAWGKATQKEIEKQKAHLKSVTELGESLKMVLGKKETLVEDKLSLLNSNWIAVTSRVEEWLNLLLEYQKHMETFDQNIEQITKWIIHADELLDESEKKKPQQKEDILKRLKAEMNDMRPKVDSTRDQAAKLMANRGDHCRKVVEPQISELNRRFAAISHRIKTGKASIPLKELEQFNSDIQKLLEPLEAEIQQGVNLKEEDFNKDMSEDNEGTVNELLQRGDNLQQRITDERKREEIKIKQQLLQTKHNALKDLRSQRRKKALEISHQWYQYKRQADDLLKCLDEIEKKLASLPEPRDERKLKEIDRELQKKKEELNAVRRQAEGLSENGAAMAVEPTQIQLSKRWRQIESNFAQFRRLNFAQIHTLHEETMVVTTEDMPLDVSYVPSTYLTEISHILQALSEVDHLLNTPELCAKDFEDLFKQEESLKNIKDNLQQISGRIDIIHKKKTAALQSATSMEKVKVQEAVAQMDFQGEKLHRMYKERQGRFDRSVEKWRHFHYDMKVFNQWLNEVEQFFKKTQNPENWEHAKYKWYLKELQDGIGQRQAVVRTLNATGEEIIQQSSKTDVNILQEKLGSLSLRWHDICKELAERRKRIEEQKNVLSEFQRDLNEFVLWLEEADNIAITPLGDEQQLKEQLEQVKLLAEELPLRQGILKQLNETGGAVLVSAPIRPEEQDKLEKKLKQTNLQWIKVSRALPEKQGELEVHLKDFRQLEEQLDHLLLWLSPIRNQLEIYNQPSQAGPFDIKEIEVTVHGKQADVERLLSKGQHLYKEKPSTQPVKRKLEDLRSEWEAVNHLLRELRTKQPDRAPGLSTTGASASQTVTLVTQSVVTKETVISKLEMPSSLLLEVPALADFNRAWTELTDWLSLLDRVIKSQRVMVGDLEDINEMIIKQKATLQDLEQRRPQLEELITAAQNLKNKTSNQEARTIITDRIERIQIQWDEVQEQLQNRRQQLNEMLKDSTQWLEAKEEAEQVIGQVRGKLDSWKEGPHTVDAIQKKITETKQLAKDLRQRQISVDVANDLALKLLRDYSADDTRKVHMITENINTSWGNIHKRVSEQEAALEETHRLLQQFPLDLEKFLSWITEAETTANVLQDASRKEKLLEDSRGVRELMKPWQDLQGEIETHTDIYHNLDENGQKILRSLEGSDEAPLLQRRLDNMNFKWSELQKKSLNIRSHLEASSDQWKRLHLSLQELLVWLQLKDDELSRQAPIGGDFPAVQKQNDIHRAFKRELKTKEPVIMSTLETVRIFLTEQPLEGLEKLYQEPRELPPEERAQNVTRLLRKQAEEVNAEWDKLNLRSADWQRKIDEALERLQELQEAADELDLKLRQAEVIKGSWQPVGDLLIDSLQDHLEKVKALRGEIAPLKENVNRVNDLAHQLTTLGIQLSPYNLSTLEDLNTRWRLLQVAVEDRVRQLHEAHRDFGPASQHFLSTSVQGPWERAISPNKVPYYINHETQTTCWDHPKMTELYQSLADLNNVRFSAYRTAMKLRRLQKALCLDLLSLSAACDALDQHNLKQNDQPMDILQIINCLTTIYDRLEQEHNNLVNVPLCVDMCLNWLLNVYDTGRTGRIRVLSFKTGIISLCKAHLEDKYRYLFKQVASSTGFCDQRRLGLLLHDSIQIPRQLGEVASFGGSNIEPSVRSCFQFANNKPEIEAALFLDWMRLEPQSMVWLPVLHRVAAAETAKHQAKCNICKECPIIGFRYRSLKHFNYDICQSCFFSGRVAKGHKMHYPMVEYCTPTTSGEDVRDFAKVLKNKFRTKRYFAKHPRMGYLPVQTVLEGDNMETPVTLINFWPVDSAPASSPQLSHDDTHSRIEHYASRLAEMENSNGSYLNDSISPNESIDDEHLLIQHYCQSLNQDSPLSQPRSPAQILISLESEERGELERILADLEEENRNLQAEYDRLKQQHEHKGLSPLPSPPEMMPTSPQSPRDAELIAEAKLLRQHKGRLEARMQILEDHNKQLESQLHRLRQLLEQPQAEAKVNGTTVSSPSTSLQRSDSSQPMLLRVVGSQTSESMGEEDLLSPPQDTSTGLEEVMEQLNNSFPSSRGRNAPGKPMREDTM
UniProt Q8CC27: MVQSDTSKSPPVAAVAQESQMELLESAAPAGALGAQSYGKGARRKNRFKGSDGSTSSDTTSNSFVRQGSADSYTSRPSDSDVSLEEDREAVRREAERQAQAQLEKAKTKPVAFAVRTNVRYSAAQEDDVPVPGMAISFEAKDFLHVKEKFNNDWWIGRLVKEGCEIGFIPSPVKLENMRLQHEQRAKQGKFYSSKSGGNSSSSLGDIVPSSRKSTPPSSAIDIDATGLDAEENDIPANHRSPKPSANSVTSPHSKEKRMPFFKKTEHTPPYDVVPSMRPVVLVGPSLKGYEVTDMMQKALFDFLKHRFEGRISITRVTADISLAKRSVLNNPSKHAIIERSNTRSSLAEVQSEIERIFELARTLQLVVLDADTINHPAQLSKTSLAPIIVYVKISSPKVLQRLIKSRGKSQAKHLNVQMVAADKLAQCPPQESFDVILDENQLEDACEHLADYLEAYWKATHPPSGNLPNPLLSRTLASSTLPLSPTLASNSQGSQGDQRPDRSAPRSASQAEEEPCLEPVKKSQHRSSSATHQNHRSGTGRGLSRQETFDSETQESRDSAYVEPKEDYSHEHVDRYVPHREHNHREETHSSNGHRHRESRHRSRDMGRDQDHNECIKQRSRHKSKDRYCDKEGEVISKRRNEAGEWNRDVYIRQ
UniProt Q9Z0J4: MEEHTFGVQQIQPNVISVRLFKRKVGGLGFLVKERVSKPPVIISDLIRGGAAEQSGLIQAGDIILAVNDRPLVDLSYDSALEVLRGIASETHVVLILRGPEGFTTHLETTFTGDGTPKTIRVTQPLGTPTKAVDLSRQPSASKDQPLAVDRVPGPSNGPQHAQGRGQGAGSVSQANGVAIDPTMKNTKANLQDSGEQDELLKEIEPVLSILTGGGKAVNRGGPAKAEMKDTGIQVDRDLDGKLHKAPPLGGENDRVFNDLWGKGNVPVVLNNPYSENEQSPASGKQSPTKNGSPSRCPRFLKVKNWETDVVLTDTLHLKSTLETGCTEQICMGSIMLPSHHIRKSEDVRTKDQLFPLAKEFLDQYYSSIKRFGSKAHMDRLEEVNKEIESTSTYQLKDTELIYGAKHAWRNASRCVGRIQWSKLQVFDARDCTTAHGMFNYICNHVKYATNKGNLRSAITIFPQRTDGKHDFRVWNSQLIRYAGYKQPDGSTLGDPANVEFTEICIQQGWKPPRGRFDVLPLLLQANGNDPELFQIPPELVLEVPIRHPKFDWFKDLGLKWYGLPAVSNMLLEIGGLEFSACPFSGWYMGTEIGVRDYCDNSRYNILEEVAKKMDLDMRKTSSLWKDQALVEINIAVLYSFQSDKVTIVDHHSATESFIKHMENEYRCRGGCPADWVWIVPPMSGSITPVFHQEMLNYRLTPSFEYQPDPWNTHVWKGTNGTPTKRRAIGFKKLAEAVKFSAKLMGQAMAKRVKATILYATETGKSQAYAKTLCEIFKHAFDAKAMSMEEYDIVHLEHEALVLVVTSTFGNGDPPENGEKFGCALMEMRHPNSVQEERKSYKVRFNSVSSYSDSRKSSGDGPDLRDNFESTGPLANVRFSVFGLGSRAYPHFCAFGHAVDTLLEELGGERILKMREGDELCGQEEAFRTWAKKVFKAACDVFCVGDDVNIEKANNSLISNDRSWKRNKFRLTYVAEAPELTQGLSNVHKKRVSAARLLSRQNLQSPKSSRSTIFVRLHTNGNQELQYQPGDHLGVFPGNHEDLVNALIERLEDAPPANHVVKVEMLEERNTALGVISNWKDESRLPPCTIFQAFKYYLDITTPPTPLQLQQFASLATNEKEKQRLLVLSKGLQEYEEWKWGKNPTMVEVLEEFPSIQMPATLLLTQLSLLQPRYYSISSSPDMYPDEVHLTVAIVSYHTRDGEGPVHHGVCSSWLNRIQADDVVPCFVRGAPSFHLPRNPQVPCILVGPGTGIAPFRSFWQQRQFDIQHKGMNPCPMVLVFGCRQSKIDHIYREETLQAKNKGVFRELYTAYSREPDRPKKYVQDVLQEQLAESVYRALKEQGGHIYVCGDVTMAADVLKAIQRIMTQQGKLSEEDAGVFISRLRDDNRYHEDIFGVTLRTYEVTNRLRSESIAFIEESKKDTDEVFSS

For test [1], the target named is full length (427 kDa) dystrophin (mouse (endogenous in skeletal muscle)) (UniProt P11531). Description: co-IP; dystrophin precipitated with MANDYS1 on protein G beads from wild type mouse quadriceps lysate (1% digitonin, 0.05% NP-40); Western blot. On the technique in general: A western blot detects proteins with antibodies after separation by electrophoresis.
In test [2] the target is T1, β-dystroglycan (mouse (endogenous in skeletal muscle)) (UniProt Q62165).
T1 sequence: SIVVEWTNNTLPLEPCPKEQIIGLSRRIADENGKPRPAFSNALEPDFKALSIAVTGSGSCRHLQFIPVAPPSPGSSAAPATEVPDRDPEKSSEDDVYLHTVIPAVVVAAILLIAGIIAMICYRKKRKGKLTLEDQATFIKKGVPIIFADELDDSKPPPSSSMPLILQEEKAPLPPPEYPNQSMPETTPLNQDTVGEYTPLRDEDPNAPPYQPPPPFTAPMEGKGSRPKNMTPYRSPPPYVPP
Description: co-IP; β-dystroglycan precipitated with MANDAG2 on protein G beads from wild type mouse quadriceps lysate (1% digitonin, 0.05% NP-40; 1 mg protein); Western blot; also done on mdx and mdx/Utrn-/- lysates.

Test [3] concerns the target T2, Polymerase I and transcript release factor (Cavin-1) (mouse) (UniProt O54724).
T2 sequence: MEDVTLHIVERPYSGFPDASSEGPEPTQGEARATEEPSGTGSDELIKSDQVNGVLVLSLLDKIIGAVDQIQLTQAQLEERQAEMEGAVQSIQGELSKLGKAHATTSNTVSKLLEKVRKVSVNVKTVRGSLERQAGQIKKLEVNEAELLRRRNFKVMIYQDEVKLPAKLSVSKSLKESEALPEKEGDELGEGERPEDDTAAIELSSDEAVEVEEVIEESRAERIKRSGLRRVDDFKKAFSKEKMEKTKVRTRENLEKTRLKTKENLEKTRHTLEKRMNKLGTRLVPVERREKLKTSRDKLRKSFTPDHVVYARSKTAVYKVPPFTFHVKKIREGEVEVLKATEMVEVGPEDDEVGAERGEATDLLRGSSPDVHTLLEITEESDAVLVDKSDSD
Description: co-IP; reverse immunoprecipitation with an antibody to Cavin-1 from wild type quadriceps lysate (1% digitonin, 0.05% NP-40); control Rabbit-anti-Goat IgG; Western blot.

The target of test [4] is T3, α-dystroglycan (mouse (endogenous in skeletal muscle)) (UniProt Q62165).
T3 sequence (chain, highly glycosylated; carbohydrate moieties bound by wheat germ agglutinin): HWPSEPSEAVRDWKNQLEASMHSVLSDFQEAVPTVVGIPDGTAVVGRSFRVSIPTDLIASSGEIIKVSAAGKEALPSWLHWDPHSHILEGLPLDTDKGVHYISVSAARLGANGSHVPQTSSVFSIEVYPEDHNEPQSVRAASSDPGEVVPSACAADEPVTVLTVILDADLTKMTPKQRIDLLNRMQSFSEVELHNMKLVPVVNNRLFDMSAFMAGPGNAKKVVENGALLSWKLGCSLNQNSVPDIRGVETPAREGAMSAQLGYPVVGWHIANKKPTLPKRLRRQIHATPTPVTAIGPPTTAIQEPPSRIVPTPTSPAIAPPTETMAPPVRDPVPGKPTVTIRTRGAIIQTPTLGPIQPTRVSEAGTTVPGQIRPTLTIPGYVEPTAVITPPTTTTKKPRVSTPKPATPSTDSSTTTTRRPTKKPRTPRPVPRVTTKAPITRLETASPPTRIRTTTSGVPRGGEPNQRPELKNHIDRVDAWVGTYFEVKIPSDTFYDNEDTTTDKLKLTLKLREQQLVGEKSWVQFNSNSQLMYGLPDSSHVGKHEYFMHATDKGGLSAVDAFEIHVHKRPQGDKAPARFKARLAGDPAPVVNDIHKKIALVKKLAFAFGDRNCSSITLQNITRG
The experiment in a line: pull-down; α-dystroglycan held by its carbohydrates on wheat germ agglutinin agarose beads; wild type mouse skeletal muscle solubilised in PBS pH 7.5 with 0.5% Triton X-100; 4 °C overnight; Western blot.

In test [5] the target is β2-regulatory subunit of voltage gated calcium channels (Cavβ2) (mouse (endogenous in skeletal muscle)) (UniProt Q8CC27). Description: co-IP; reverse immunoprecipitation with an antibody to Cavβ2 from wild type quadriceps lysate (1% digitonin, 0.05% NP-40); control antibody MW8; Western blot.
Test [6] deals with T1, β-dystroglycan (mouse (endogenous in skeletal muscle)). Description: co-IP; β-dystroglycan precipitated with MANDAG2 from mdx (dystrophin-deficient) mouse quadriceps lysate (1% digitonin, 0.05% NP-40); Western blot.

No constants are given. Whether binding was seen depends on the method and setting. Binding seen in cells or lysates may run through a third protein. Some binding calls cover weakened binding; strength is not graded here.

For “β2-regulatory subunit of voltage gated calcium channels (Cavβ2) (from UniProt Q8CC27 1-655)”, the results for the binding result in test [1], in test [2] and in test [3] were “no binding”, “binds” and “no binding”, respectively.

Turning to “full length (427 kDa) dystrophin (from UniProt P11531 1-3678)”, the binding result in test [4] was “binds”; in test [2], “binds”; in test [5] it was “no binding”.

For “neuronal nitric oxide synthase (from UniProt Q9Z0J4 1-1429) (enzyme)”, the binding entry in test [2] is given as “binds”; in test [6], “no binding (condition: in mdx muscle (no dystrophin))”.

utrophin (from UniProt E9Q6R7 1-3430): the binding result in test [2] is “binds”; in test [3], “no binding”; in test [5], “no binding”.
